{"source": "PubChem BioAssay AID686978", "about": "(National Center for Advancing Translational Sciences (NCATS), 2013)", "note": "Screen size: about 420,000 compounds; about 64,000 (15%) were called active. Inconclusive results, whose numbers are uncertain, are shown with a selection of clear calls. Calls come from the whole dose curve; as a rule, active = well fitted inhibition curve with a large enough effect; inconclusive = small, poorly fitted or top-dose-only effect; inactive = flat fitted curve, though single readings scatter. No potency is given beside an inconclusive call; the fits are too rough. Some compounds were tested as several samples or in several runs, with calls that do not always agree. % is set by controls: 0 for no effect and ±100 for the full control effect; potency is the fitted concentration of half-maximal effect; tags give direction and shape of the fitted curve.", "data": [{"assay": "qHTS for Inhibitors of human tyrosyl-DNA phosphodiesterase 1 (TDP1): qHTS in cells in absence of CPT; note: nearly all actives have a fitted effect of over 55% in size", "details": "DT40 Tdp1-/- hTDP1 cells, no CPT, ATP luminescence, 48 h; activity change, negative = growth inhibition: at 46.2 µM (top of the series)", "how_it_was_run": "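Cells were dispensed at 400 per well, compounds added by pin tool, plates incubated ≥48 hr at 37 °C, then CellTiter-Glo added for 30 min at room temperature before luminescence reading. Line: DT40 Tdp1-/- complemented with hTDP1; camptothecin omitted.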", "values": [{"smiles": "CCOc1ccc(C(=O)NCC2CCCO2)cc1", "note": "(configuration not stated)", "Potency": "inactive"}, {"smiles": "CN(C)CCc1cc2c(c3c1ccc1ccccc13)OCO2", "Potency": "active: 20.6 µM", "activity change, negative = growth inhibition": "inactive: -11.3% [at 9.04 µM]"}, {"smiles": "CCC(CC)c1nnc(NC(=O)C2CCN(C(=O)c3ccco3)CC2)s1", "Potency": "inconclusive [inhibitor, single point]"}, {"smiles": "O=C(Cc1ccccc1)N/N=C/c1cccn1-c1ccc([N+](=O)[O-])cc1", "Potency": "inconclusive [inhibitor, single point]"}, {"smiles": "CC(C)C[C@H]1CNC(=S)N1C[C@H]1CCCN1C[C@H](Cc1ccc(O)cc1)N1C[C@H](Cc2ccccc2)N(CC2CCCCC2)C1=S", "Potency": "active: 18.4 µM"}, {"smiles": "C/C(CC(=O)Nc1ccc([N+](=O)[O-])cc1)=N\\NC(=O)c1ccccc1O", "Potency": "inactive"}, {"smiles": "Cc1ccc(-c2nc3ncccn3c2NC2CCCC2)o1", "Potency": "inconclusive [inhibitor, partial curve]"}, {"smiles": "Cc1ccc(NC(=O)CCc2ccc(C)o2)c(C)c1", "Potency": "inactive"}, {"smiles": "COc1ccc(CCn2c3c(c(=O)[nH]c2=S)CN(c2ccccc2)CN3)cc1OC", "Potency": "inconclusive [inhibitor, single point]"}, {"smiles": "Cc1ccc(Cn2nnnc2CN2CCC(c3nc4ccc(Cl)cc4[nH]3)CC2)cc1", "Potency": "active: 2.31 µM"}, {"smiles": "CS(=O)(=O)n1nc(-c2ccco2)nc1NCc1ccccc1Cl", "Potency": "active: 18.4 µM"}, {"smiles": "Cc1ccc(S(=O)(=O)N2CCOCC2)cc1NC(=O)CNC(C)c1ccccc1", "note": "(configuration not stated)", "Potency": "inactive"}, {"smiles": "COc1ccc(C(=O)c2cn(Cc3cccc(C)c3)c3cc4c(cc3c2=O)OCO4)cc1", "Potency": "active: 25.9 µM"}, {"smiles": "COc1ccc(/C=C(\\C#N)C(=O)Nc2ccc3[nH]c(=O)[nH]c3c2)cc1", "Potency": "inactive"}, {"smiles": "Cc1c(C)n(CCc2ccccc2)c2ncnc(NCCO)c12", "Potency": "inconclusive [inhibitor, single point]"}, {"smiles": "COc1cccc(CN2CCN(Cc3cccc(Br)c3)CC2)c1OC", "Potency": "inconclusive [inhibitor, single point]"}, {"smiles": "Cc1ccc(NC(=O)CN2C(=O)C3C4C=CC(C4)C3C2=O)cc1S(=O)(=O)N(C)C", "note": "(configuration not stated)", "Potency": "inconclusive [inhibitor, single point]"}, {"smiles": "CCCCn1c(CCC(=O)O)nc2cc(S(=O)(=O)N3CCCC3)ccc21", "Potency": "inactive"}, {"smiles": "Cc1c(/C=C(\\C#N)C(=O)Nc2cccc(Cl)c2)c2ccccc2n1Cc1ccccc1", "Potency": "active: 5.8 µM"}, {"smiles": "CCOCCCNC(=S)N(Cc1ccccc1)Cc1nc2ccccc2c(=O)[nH]1", "Potency": "inconclusive [inhibitor, partial curve]"}, {"smiles": "Cc1cc(Br)ccc1OCCCCNC(C)(C)C", "Potency": "active: 20.6 µM"}, {"smiles": "N/C(Cc1ccc([N+](=O)[O-])cc1)=N\\OC(=O)c1ccc2ccccc2c1", "Potency": "inconclusive [inhibitor, single point]"}, {"smiles": "O=C(Nc1ccccc1F)c1coc(=O)c(Br)c1", "Potency": "active: 1.64 µM"}, {"smiles": "O=C(CCN1C(=O)/C(=C\\c2ccccc2)SC1=S)NNC(=O)c1cccnc1", "Potency": "inconclusive [inhibitor, full curve]"}, {"smiles": "CNC(=O)COc1ccccc1C(=O)Nc1ccccc1", "Potency": "inactive"}, {"smiles": "O=C(c1ccc(N2CCCCS2(=O)=O)cc1)N1CCN(c2ccccc2F)CC1", "Potency": "inconclusive [inhibitor, full curve]"}, {"smiles": "CCOc1ccccc1N(CC(=O)Nc1ccccc1Br)S(=O)(=O)c1ccccc1", "Potency": "inconclusive [inhibitor, single point]"}, {"smiles": "O=C(NCc1cccnc1)C(=O)NC1CCCCC1", "Potency": "inactive"}, {"smiles": "Cn1nnc(NC(=S)NC(=O)Cc2ccccc2)n1", "Potency": "inconclusive [inhibitor, single point]"}, {"smiles": "COc1ccc(C(=O)CSc2nnc(CNc3ccc(C)cc3C)n2Cc2ccco2)cc1", "Potency": "active: 23.1 µM"}, {"smiles": "Cc1ccc(NS(=O)(=O)c2ccc3c(c2)[C@H]2C=CC[C@H]2[C@@H](c2ccc(F)cc2)N3)cc1C", "Potency": "active: 5.17 µM"}, {"smiles": "COc1ccc(N2CCN(C(=O)COC(=O)COc3ccc(C#N)cc3)CC2)cc1", "Potency": "inactive"}, {"smiles": "Cn1c(=O)c2c(SCC(=O)NCc3ccc(F)cc3)nc(-c3ccccc3Cl)nc2n(C)c1=O", "Potency": "inconclusive [inhibitor, full curve]"}, {"smiles": "Cc1ccc(/C=N\\NC(=O)COc2ccc(C)cc2[N+](=O)[O-])cc1", "activity change, negative = growth inhibition": "inconclusive: -31.4% [inhibitor]"}, {"smiles": "COCCNc1nc(Oc2ccc(Cl)c(Cl)c2)c2sccc2n1", "Potency": "inactive"}, {"smiles": "O=S(=O)(c1ccsc1)N1CC=C(c2ccccc2)CC1", "Potency": "inconclusive [inhibitor, single point]"}, {"smiles": "Cc1ccc(S(=O)(=O)N(C)C)cc1NC(=O)c1c(-c2c(F)cccc2Cl)noc1C", "Potency": "inactive"}, {"smiles": "Cc1ccccc1C(=O)Nc1c(C(=O)N(CCN(C)C)Cc2ccco2)oc2ccccc12", "Potency": "inconclusive [inhibitor, single point]"}, {"smiles": "O=C(Cc1ccccc1[N+](=O)[O-])NC1CC2CCC1C2", "note": "(configuration not stated)", "Potency": "inactive"}, {"smiles": "CCC(C)c1ccc(NC(=O)c2ccco2)cc1", "note": "(configuration not stated)", "Potency": "inconclusive [inhibitor, single point]"}, {"smiles": "O=S(=O)(Nc1cc(Sc2ncn[nH]2)c(O)c2ccccc12)c1ccccc1", "Potency": "active: 2.06 µM"}, {"smiles": "Cc1cc(C)n2c(Nc3ccc4c(c3)OCCO4)c(-c3ccc(C)o3)nc2n1", "Potency": "inconclusive [inhibitor, single point]"}, {"smiles": "O=C(N/N=C/C=C/c1ccccc1)C1CC1(c1ccccc1)c1ccccc1", "note": "(configuration not stated)", "Potency": "inconclusive [inhibitor, single point]"}, {"smiles": "CN(CCOc1ccc(Cl)cc1)C(=O)CN1C(=O)NC2(CCCCC2)C1=O", "Potency": "inconclusive [inhibitor, single point]"}, {"smiles": "Cc1ccc(NC(=O)CSc2nc3ccc(NC(=O)COc4ccc(C)cc4)cc3s2)cc1", "Potency": "active: 18.4 µM"}, {"smiles": "O=C(Nc1ccc(F)cc1)N1CCN(C(=O)C2CCCO2)CC1", "note": "(configuration not stated)", "Potency": "inactive"}, {"smiles": "COc1ccccc1N1CCN(C(=O)CCn2nc(C)c(S(=O)(=O)N3CCCC3)c2C)CC1", "Potency": "inconclusive [inhibitor, partial curve]"}, {"smiles": "O=C(Cn1nc(CNc2ccc(Cl)cc2)[n+]2c1CCCCC2)c1ccc(Br)cc1", "Potency": "inconclusive [inhibitor, single point]"}, {"smiles": "Cc1ccc(-n2cc(CN3CCN(Cc4nccn4C)CC3)c(-c3cccc(C)c3)n2)cc1", "Potency": "inconclusive [inhibitor, single point]"}, {"smiles": "Brc1ccc(C2=CSC3=NCCN23)cc1", "Potency": "inconclusive [inhibitor, single point]"}, {"smiles": "CCC(=O)N(CCC(c1ccco1)c1ccccc1OC)Cc1cccs1", "note": "(configuration not stated)", "Potency": "inconclusive [inhibitor, single point]"}, {"smiles": "Cc1ccc(-c2nn(CCC(=O)O)cc2/C=C\\C(=O)c2ccc(Br)cc2)cc1", "Potency": "inconclusive [inhibitor, single point]"}, {"smiles": "O=C1CCCCC1(CCc1ccncc1)CCc1ccncc1", "Potency": "active: 11.6 µM"}, {"smiles": "O=S(=O)(c1cc(F)ccc1F)N1CCC2(CC1)OCCN2S(=O)(=O)c1ccccc1", "Potency": "inconclusive [inhibitor, partial curve, poor fit]"}, {"smiles": "C[C@H]1CN([C@@H](C)CO)C(=O)c2cc(-c3cccc(C#N)c3)cnc2O[C@H]1CN(C)C(=O)c1ccccn1", "Potency": "inconclusive [inhibitor, single point]"}, {"smiles": "Cc1cnc(C)c(N2CCC(C(=O)NC(C)c3cccs3)CC2)n1", "note": "(configuration not stated)", "Potency": "inactive"}, {"smiles": "COc1cc(NC(=S)Nc2ccccn2)cc(OC)c1", "Potency": "inconclusive [inhibitor, single point]"}, {"smiles": "COc1cccc2c(Cl)c(CCCl)c(C)nc12", "activity change, negative = growth inhibition": "inconclusive: -31.2% [inhibitor]"}, {"smiles": "CC(=O)N1CCC2(CC1)CCN(C(c1ccccc1)c1ccccc1)CC2", "Potency": "inconclusive [inhibitor, single point]"}, {"smiles": "O=C(Nc1nnc(C2CC(=O)N(c3ccc(Cl)cc3)C2)s1)c1ccco1", "note": "(configuration not stated)", "Potency": "inconclusive [inhibitor, single point]"}, {"smiles": "CCOC(=O)Cc1csc(SCC(=O)Nc2cccc(Cl)c2)n1", "Potency": "active: 14.6 µM"}, {"smiles": "O=C(CN1CCC(n2nnc3cc(C(F)(F)F)ccc32)CC1)NNC(=O)c1ccco1", "Potency": "inconclusive [inhibitor, single point]"}, {"smiles": "Cc1nc2c(-c3ccccc3)c(C)nn2c(C)c1CCC(=O)Nc1ccccc1F", "Potency": "inconclusive [inhibitor, single point]"}, {"smiles": "C#CCNC(=O)c1cc2c(Br)ccc(Br)c2nc1N", "Potency": "inactive"}, {"smiles": "COc1ccccc1NS(=O)(=O)c1cccc(NC(=O)C2CC(=O)N(Cc3ccccc3)C2)c1", "note": "(configuration not stated)", "Potency": "inconclusive [inhibitor, partial curve]"}, {"smiles": "O=C(CC1C(=O)NCCN1CCCc1ccccc1)NCCc1ccccc1F", "note": "(configuration not stated)", "Potency": "inconclusive [inhibitor, single point]"}, {"smiles": "Cc1cccc(Nc2nc(C)nc3c2oc2ccccc23)c1", "Potency": "inconclusive [inhibitor, single point]"}, {"smiles": "Cc1nc2nc(SCC(=O)NCCc3ccc(Cl)cc3)nn2c(C)c1Cc1ccccc1Cl", "Potency": "inconclusive [inhibitor, single point]"}, {"smiles": "Cc1ccccc1C1=CCN(c2ncc(NC(=O)c3ccc(Cl)cc3)cc2C(=O)O)CC1", "Potency": "active: 23.1 µM"}, {"smiles": "COc1cccc(/C=N/Nc2ccc([N+](=O)[O-])cc2)c1O", "Potency": "inconclusive [inhibitor, single point]"}, {"smiles": "O=C(/C=C/c1ccc2ccccc2n1)N1CCN(S(=O)(=O)c2ccccc2F)CC1", "Potency": "active: 18.4 µM"}]}]}
